Test results reported in EPA's CvTdb concentration-time database.
This continues a long series; more values of the same kind are listed elsewhere.

Key:
Test in all cases: concentration in plasma after dosing
Rat [1] = conditions: dosed: Methyleugenol, 75 mg/kg, oral, Male, F344
Rat [2] = conditions: dosed: Methyleugenol, 75 mg/kg, oral, Female, F344/N
Rat [3] = conditions: dosed: Methyleugenol, 75 mg/kg, oral, Female, F344/N; remark: listed apart in the source
Rat [4] = conditions: dosed: Methyleugenol, 150 mg/kg, oral, Female, F344/N
Rat [5] = conditions: dosed: Methyleugenol, 150 mg/kg, oral, Female, F344/N; remark: listed apart in the source
Rat [6] = conditions: dosed: Methyleugenol, 75 mg/kg, oral, Female, F344/N; remark: listed apart in the source
Rat [7] = conditions: dosed: Methyleugenol, 75 mg/kg, oral, Male, F344; remark: listed apart in the source
Rat [8] = conditions: dosed: Methyleugenol, 150 mg/kg, oral, Male, F344/N
Rat [9] = conditions: dosed: Methyleugenol, 150 mg/kg, oral, Male, F344
Rat [10] = conditions: 0.25 h; dosed: Methyleugenol; 37 mg/kg; oral; Female; F344
Rat [11] = conditions: dosed: Methyleugenol, 75 mg/kg, oral, Male, F344; remark: listed apart in the source
Rat [12] = conditions: dosed: Methyleugenol, 150 mg/kg, oral, Female, F344/N; remark: listed apart in the source
Rat [13] = conditions: 0.25 h; dosed: Methyleugenol; 37 mg/kg; oral; Male; F344
Rat [14] = conditions: dosed: Methyleugenol, 150 mg/kg, oral, Male, F344/N; remark: listed apart in the source
Rat [15] = conditions: dosed: Methyleugenol, 75 mg/kg, oral, Male, F344/N
Rat [16] = conditions: dosed: Methyleugenol, 150 mg/kg, oral, Female, F344/N; remark: listed apart in the source
Rat [17] = conditions: dosed: Methyleugenol, 37 mg/kg, oral, Female, F344/N
Rat [18] = conditions: dosed: Methyleugenol, 37 mg/kg, oral, Male, F344
Rat [19] = conditions: dosed: Methyleugenol, 75 mg/kg, oral, Female, F344/N; remark: listed apart in the source
Rat [20] = conditions: 0.25 h; dosed: Methyleugenol; 37 mg/kg; oral; Male; F344; remark: listed apart in the source
Rat [21] = conditions: dosed: Methyleugenol, 75 mg/kg, oral, Male, F344; remark: listed apart in the source
Rat [22] = conditions: dosed: Methyleugenol, 150 mg/kg, oral, Female, F344/N; remark: listed apart in the source
Rat [23] = conditions: dosed: Methyleugenol, 75 mg/kg, oral, Female, F344/N; remark: listed apart in the source
Rat [24] = conditions: dosed: Methyleugenol, 75 mg/kg, oral, Female, F344/N; remark: listed apart in the source
Rat [25] = conditions: 0.5 h; dosed: Methyleugenol; 37 mg/kg; oral; Female; F344
Rat [26] = conditions: dosed: Methyleugenol, 75 mg/kg, oral, Male, F344/N; remark: listed apart in the source
Rat [27] = conditions: dosed: Methyleugenol, 150 mg/kg, oral, Male, F344/N; remark: listed apart in the source
Rat [28] = conditions: dosed: Methyleugenol, 75 mg/kg, oral, Female, F344/N; remark: listed apart in the source
Rat [29] = conditions: dosed: Methyleugenol, 150 mg/kg, oral, Female, F344
Rat [30] = conditions: 5 min; dosed: Methyleugenol; 75 mg/kg; oral; Female; F344
Rat [31] = conditions: dosed: Methyleugenol, 150 mg/kg, oral, Male, F344/N; remark: listed apart in the source
Rat [32] = conditions: 5 min; dosed: Methyleugenol; 37 mg/kg; oral; Male; F344
Rat [33] = conditions: dosed: Methyleugenol, 150 mg/kg, oral, Female, F344; remark: listed apart in the source
Rat [34] = conditions: dosed: Methyleugenol, 75 mg/kg, oral, Female, F344/N; remark: listed apart in the source
Rat [35] = conditions: dosed: Methyleugenol, 150 mg/kg, oral, Female, F344; remark: listed apart in the source
Rat [36] = conditions: dosed: Methyleugenol, 150 mg/kg, oral, Male, F344; remark: listed apart in the source

C=CCc1ccc(OC)c(OC)c1 [Methyleugenol]
Conditions | concentration in plasma [ng/mL]
Rat [1], 0.25 h | 1090
Rat [1], 4 h | 251
Rat [2], 2 h | 140
Rat [2], 5 min | 1790
Rat [3], 1 h | 311
Rat [3], 3 h | 127
Rat [4], 1.5 h | 879
Rat [4], 5 h | 238
Rat [5], 1 h | 631
Rat [5], 24 h | 6.28
Rat [6], 2 h | 38
Rat [6], 10 min | 814
Rat [7], 0.5 h | 1440
Rat [7], 1.5 h | 509
Rat [8], 0.25 h | 4150
Rat [8], 5 h | 877
Rat [9], 0.25 h | 2480
Rat [9], 4 h | 1730
Rat [11], 5 min | 1380
Rat [11], 6 h | 57
Rat [12], 1.5 h | 1140
Rat [12], 8 h | 147
Rat [14], 1 h | 299
Rat [14], 4 h | 774
Rat [15], 3 h | 93.5
Rat [15], 10 min | 669
Rat [16], 4.75 h | 260
Rat [16], 5 min | 6290
Rat [17], 0.5 h | 490
Rat [17], 4 h | 14.5
Rat [18], 0.5 h | 325
Rat [18], 1.5 h | 160
Rat [19], 2 min | 285
Rat [19], 3 h | 242
Rat [21], 1 h | 600
Rat [21], 2 h | 327
Rat [22], 0.5 h | 1180
Rat [22], 3 h | 812
Rat [23], 4 h | 79.2
Rat [23], 20 min | 426
Rat [24], 2 min | 980
Rat [24], 6 h | 49
Rat [26], 5 h | 114
Rat [26], 5 min | 126
Rat [27], 2 h | 1200
Rat [27], 12 h | 47.5
Rat [28], 4 h | 87.3
Rat [28], 10 min | 1030
Rat [29], 0.25 h | 3570
Rat [29], 4 h | 454
Rat [31], 6 h | 989
Rat [31], 10 min | 1520
Rat [33], 1 h | 1510
Rat [33], 2 h | 579
Rat [34], 0.5 h | 281
Rat [34], 8 h | 10.9
Rat [35], 1 h | 1640
Rat [35], 2 h | 501
Rat [36], 0.25 h | 2080
Rat [36], 4 h | 1680

Conditions | concentration in plasma [ng/mL]
Rat [10] | 687
Rat [13] | 469
Rat [20] | 431
Rat [25] | 100
Rat [30] | 2760
Rat [32] | 603
